In publication PMC3936715, “Structural and functional analysis of the three MIF4G domains of nonsense-mediated decay factor UPF2” (Nucleic Acids Research, 2013):
These are yes or no findings as the source states them, for the method shown. For some assays here: Binding seen in cells or lysates may run through a third protein. Some binding calls cover weakened binding; strength is not graded here.

The chains behind the UniProt entries cited, without tags or fusion partners.
UniProt Q96Q15: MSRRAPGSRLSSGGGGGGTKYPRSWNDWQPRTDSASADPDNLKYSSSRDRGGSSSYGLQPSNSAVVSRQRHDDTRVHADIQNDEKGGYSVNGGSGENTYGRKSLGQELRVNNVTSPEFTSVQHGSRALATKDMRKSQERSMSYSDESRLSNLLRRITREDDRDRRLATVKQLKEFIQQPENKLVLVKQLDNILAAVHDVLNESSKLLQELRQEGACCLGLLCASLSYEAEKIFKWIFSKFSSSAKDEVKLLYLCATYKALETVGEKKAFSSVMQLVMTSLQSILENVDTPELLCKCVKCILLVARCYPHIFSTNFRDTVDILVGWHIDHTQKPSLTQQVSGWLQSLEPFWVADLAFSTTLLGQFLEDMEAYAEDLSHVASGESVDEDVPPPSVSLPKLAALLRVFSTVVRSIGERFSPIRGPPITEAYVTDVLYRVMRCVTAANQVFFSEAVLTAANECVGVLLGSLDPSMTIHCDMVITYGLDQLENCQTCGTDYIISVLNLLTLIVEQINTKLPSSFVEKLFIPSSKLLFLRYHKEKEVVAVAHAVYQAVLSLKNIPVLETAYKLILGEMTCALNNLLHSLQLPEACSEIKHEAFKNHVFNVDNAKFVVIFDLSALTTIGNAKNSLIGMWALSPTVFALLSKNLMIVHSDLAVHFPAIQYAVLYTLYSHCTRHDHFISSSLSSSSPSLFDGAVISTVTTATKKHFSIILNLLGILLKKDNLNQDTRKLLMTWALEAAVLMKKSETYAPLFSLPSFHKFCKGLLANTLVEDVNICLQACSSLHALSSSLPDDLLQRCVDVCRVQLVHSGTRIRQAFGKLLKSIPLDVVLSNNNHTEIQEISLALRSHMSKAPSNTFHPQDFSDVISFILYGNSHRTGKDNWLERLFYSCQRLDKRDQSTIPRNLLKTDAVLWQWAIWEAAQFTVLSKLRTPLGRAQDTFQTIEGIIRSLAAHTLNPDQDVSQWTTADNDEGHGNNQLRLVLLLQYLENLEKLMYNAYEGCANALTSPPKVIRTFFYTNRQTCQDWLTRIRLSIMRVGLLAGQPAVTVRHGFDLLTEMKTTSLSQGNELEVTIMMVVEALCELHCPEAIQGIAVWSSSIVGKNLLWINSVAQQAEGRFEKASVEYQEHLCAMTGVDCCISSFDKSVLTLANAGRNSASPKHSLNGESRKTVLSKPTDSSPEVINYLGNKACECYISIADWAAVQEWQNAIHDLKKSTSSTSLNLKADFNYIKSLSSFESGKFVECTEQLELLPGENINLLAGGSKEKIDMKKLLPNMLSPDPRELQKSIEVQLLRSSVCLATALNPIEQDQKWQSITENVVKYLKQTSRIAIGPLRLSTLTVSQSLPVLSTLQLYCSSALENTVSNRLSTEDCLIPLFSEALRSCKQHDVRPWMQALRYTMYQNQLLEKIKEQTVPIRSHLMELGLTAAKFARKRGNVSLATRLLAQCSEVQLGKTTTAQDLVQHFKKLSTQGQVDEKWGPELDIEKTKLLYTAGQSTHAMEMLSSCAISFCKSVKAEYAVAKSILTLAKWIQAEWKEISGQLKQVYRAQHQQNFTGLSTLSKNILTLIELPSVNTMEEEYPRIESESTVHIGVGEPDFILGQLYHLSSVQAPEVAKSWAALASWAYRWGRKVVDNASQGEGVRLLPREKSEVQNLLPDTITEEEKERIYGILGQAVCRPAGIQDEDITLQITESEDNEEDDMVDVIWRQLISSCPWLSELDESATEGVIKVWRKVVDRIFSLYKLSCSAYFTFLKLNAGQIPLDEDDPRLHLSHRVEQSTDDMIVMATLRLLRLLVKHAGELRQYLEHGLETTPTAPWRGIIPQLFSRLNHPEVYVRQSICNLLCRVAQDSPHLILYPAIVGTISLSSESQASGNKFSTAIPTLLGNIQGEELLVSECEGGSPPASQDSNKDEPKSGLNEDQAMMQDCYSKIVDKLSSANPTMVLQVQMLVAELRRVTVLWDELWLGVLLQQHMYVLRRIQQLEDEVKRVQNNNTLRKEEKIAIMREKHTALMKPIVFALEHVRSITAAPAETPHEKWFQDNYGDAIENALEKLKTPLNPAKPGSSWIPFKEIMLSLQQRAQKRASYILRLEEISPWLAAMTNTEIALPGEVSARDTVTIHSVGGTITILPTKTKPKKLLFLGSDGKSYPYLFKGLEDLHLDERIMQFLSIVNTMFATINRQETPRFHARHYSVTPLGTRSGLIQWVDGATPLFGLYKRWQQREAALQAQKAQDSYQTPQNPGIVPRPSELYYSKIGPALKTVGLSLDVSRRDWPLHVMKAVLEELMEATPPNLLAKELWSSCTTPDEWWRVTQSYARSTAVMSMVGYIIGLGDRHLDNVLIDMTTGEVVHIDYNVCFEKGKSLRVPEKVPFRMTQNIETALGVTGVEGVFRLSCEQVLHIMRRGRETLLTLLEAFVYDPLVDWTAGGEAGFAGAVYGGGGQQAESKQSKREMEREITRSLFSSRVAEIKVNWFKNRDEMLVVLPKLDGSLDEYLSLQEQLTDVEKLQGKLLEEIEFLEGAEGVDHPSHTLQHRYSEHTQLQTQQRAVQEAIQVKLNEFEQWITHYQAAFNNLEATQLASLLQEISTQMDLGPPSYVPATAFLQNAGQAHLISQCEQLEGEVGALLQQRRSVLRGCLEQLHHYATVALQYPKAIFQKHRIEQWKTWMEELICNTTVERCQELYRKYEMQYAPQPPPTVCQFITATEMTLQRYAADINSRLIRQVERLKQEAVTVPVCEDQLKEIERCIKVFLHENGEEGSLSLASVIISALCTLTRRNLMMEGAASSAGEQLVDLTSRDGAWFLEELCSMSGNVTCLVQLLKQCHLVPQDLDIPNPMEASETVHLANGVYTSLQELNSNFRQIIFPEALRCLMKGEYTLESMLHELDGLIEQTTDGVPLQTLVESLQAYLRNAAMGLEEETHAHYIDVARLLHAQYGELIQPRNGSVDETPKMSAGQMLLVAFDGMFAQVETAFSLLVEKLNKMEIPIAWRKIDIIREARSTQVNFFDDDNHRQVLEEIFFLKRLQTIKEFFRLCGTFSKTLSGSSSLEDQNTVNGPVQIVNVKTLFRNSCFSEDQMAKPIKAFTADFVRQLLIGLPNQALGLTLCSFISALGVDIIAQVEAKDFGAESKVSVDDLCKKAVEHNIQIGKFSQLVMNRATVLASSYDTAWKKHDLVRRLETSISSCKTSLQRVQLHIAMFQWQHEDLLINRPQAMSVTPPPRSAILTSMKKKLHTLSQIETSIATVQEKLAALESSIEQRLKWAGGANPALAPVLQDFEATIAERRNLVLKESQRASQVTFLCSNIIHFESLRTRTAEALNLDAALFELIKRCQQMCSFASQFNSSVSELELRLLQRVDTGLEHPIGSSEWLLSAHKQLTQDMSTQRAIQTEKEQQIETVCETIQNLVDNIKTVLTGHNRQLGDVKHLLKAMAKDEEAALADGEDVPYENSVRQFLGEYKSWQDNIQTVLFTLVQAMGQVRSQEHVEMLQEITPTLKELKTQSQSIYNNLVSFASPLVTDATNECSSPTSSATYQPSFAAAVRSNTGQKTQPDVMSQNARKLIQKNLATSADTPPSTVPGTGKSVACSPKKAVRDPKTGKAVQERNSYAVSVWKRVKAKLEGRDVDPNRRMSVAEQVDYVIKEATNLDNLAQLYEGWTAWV

B1: UPF1 (endogenous, HeLa) (protein, UniProt Q92900 1-1129)
chain: MSVEAYGPSSQTLTFLDTEEAELLGADTQGSEFEFTDFTLPSQTQTPPGGPGGPGGGGAGGPGGAGAGAAAGQLDAQVGPEGILQNGAVDDSVAKTSQLLAELNFEEDEEDTYYTKDLPIHACSYCGIHDPACVVYCNTSKKWFCNGRGNTSGSHIVNHLVRAKCKEVTLHKDGPLGETVLECYNCGCRNVFLLGFIPAKADSVVVLLCRQPCASQSSLKDINWDSSQWQPLIQDRCFLSWLVKIPSEQEQLRARQITAQQINKLEELWKENPSATLEDLEKPGVDEEPQHVLLRYEDAYQYQNIFGPLVKLEADYDKKLKESQTQDNITVRWDLGLNKKRIAYFTLPKTDSGNEDLVIIWLRDMRLMQGDEICLRYKGDLAPLWKGIGHVIKVPDNYGDEIAIELRSSVGAPVEVTHNFQVDFVWKSTSFDRMQSALKTFAVDETSVSGYIYHKLLGHEVEDVIIKCQLPKRFTAQGLPDLNHSQVYAVKTVLQRPLSLIQGPPGTGKTVTSATIVYHLARQGNGPVLVCAPSNIAVDQLTEKIHQTGLKVVRLCAKSREAIDSPVSFLALHNQIRNMDSMPELQKLQQLKDETGELSSADEKRYRALKRTAERELLMNADVICCTCVGAGDPRLAKMQFRSILIDESTQATEPECMVPVVLGAKQLILVGDHCQLGPVVMCKKAAKAGLSQSLFERLVVLGIRPIRLQVQYRMHPALSAFPSNIFYEGSLQNGVTAADRVKKGFDFQWPQPDKPMFFYVTQGQEEIASSGTSYLNRTEAANVEKITTKLLKAGAKPDQIGIITPYEGQRSYLVQYMQFSGSLHTKLYQEVEIASVDAFQGREKDFIILSCVRANEHQGIGFLNDPRRLNVALTRARYGVIIVGNPKALSKQPLWNHLLNYYKEQKVLVEGPLNNLRESLMQFSKPRKLVNTINPGARFMTTAMYDAREAIIPGSVYDRSSQGRPSSMYFQTHDQIGMISAGPSHVAAMNIPIPFNLVMPPMPPPGYFGQANGPAAGRGTPKGKTGRGGRQKNRFGLPGPSQTNLPNSQASQDVASQPFSQGALTQGYISMSQPSQMSQPGLSQPELSQDSYLGDEFKSQIDVALSQDSTYQGERAYQHGGVTGLSQY
B2: UPF3b (endogenous, HeLa) (protein, UniProt Q9BZI7 1-483)
chain: MKEEKEHRPKEKRVTLLTPAGATGSGGGTSGDSSKGEDKQDRNKEKKEALSKVVIRRLPPTLTKEQLQEHLQPMPEHDYFEFFSNDTSLYPHMYARAYINFKNQEDIILFRDRFDGYVFLDNKGQEYPAIVEFAPFQKAAKKKTKKRDTKVGTIDDDPEYRKFLESYATDNEKMTSTPETLLEEIEAKNRELIAKKTTPLLSFLKNKQRMREEKREERRRREIERKRQREEERRKWKEEEKRKRKDIEKLKKIDRIPERDKLKDEPKIKVHRFLLQAVNQKNLLKKPEKGDEKELDKREKAKKLDKENLSDERASGQSCTLPKRSDSELKDEKPKRPEDESGRDYREREREYERDQERILRERERLKRQEEERRRQKERYEKEKTFKRKEEEMKKEKDTLRDKGKKAESTESIGSSEKTEKKEEVVKRDRIRNKDRPAMQLYQPGARSRNRLCPPDDSTKSGDSAAERKQESGISHRKEGGEE
B3: UPF2 MIF4G-3 domain (residues 761–1054) (domain or fragment, human, UniProt Q9HAU5 761-1054, looked up)
chain: EKTVKKKRPPLQEYVRKLLYKDLSKVTTEKVLRQMRKLPWQDQEVKDYVICCMINIWNVKYNSIHCVANLLAGLVLYQEDVGIHVVDGVLEDIRLGMEVNQPKFNQRRISSAKFLGELYNYRMVESAVIFRTLYSFTSFGVNPDGSPSSLDPPEHLFRIRLVCTILDTCGQYFDRGSSKRKLDCFLVYFQRYVWWKKSLEVWTKDHPFPIDIDYMISDTLELLRPKIKLCNSLEESIRQVQDLEREFLIKLGLVNDKDSKDSMTEGENLEEDEEEEEGGAETEEQSGNESEVNE
notes: UPF2, human, Q9HAU5, MIF4G-3 construct, residues 761-1054; Limits are printed for the construct 'which we used as substrate in our assays'; also called MIF4G domain 3

Columns and labels:
[1] = biological target: SMG1 (full-length recombinant, wild-type, N-terminal SBP-tag) (UniProt Q96Q15); assay: SPR; SMG1 immobilised on a streptavidin chip; each UPF2 construct injected at 10 nM; interaction profile; both purified
[2] = biological target: FLAG-tagged UPF2 ΔM1 (lacking the core MIF4G-1 domain, residues 168–431) (human) (UniProt Q9HAU5); assay: co-IP; HeLa cells transfected with FLAG-tagged UPF2 plasmids; immunoprecipitation with FLAG beads; co-precipitated UPF1 and UPF3b detected by western blotting
[3] = biological target: FLAG-tagged UPF2 ΔM2 (lacking the core MIF4G-2 domain, residues 569–758) (human) (UniProt Q9HAU5); assay: as above
[4] = biological target: FLAG-tagged UPF2 ΔN/M1 (lacking MIF4G-1 and the preceding N-terminal region, residues 1–455) (human) (UniProt Q9HAU5); assay: as above
[5] = biological target: FLAG-tagged UPF2 ΔN/M1M2 (lacking MIF4G-1, MIF4G-2 and the preceding N-terminal region, residues 1–757) (human) (UniProt Q9HAU5); assay: as above
[6] = biological target: FLAG-tagged wild-type UPF2 (human) (UniProt Q9HAU5); assay: as above
[7] = biological target: SMG1 (full-length recombinant, wild-type, N-terminal SBP-tag) (UniProt Q96Q15); assay: SPR; competition: SMG1 immobilised; MIF4G-3 at constant 50 nM injected with 0, 50, 250, 500 nM UPF3b RRM domain; both purified

Row | Molecule | binding [1] | binding [2] | binding [3] | binding [4] | binding [5] | binding [6] | binding [7]
1 | UPF2 MIF4G-1 domain (residues 121–486) (from UniProt Q9HAU5 121-486) (domain or fragment) | no binding (tested: 10 nM) | – | – | – | – | – | –
2 | UPF2 MIF4G-2 domain (residues 455–757) (from UniProt Q9HAU5 455-757) (domain or fragment) | no binding (tested: 10 nM) | – | – | – | – | – | –
3 | B1 | – | binds | binds | binds | binds | binds | –
4 | B2 | – | binds | binds | binds | binds | binds | –
5 | B3 | binds | – | – | – | – | – | binds
